This is an account of results in the supplement of paper PMC12645437, “Orthogonal IMiD-Degron Pairs Induce Selective Protein Degradation in Cells” (ACS Chemical Biology, 2025).

Some of the results follow.
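Note: jurkat cells carrying a lentiviral library of mutant zinc finger degrons fused to EGFP plus mCherry, mCherry+ cells FACS sorted, degron abundance counted by next-generation sequencing.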

The test concerns the target no compound (DMSO). The experiment in a line: log2 fold change of degron read counts, EGFP-low vs EGFP+ sorted cells; higher = lower degron-EGFP level without compound (poor expression or instability). The note with it: compound: DMSO control; 18 h.
Turning to FRCEVCGAYFTQKGNLLRHIKL, the “log2 fold change of degron read counts” value is -0.773.
The value for FWCDICGAIFTQKGNLLRHIKL was 1.29; that for FCCSVCGHEFTQKGNLLRHIKL was -1.2; that for FGCEICGANFTQKGNLLRHIKL was -1.03.
The value for FLCPVCGASFTQKGNLLRHIKL was -0.278; that for FACPVCGAWFTQKGNLLRHIKL was 0.68.
With FDCSVCGHDFTQKGNLLRHIKL, the “log2 fold change of degron read counts” value came to 0.43.
Then FECDQCGADFTQKGNLLRHIKL, with -2.59; and FNCDICGANFTQKGNLLRHIKL, with -1.85; and FWCDICGATFTQKGNLLRHIKL, with -0.637.
Then LHCPICGFRCTQKGNLLRHIKL, with 0.644.
The value for FYCEQCGALFTQKGNLLRHIKL was -0.893; that for FKCPICGHFFTQKGNLLRHIKL was -0.339; that for FSCPICGRAFTQKGNLLRHIKL was -0.307.
As to FVCEICGRQFTQKGNLLRHIKL, the “log2 fold change of degron read counts” value was -1.87.
Then FKCEVCGAMFTQKGNLLRHIKL, with -1.71; and FECSVCGHNFTQKGNLLRHIKL, with -1.33; and FMCEQCGAQFTQKGNLLRHIKL, with -1.39.
Then FTCPVCGAPFTQKGNLLRHIKL, with 0.546; and FVCDICGANFTQKGNLLRHIKL, with -2.24.
Then FRCNVCGALFTQKGNLLRHIKL, with -0.701; and FVCEVCGAIFTQKGNLLRHIKL, with -1.8; and FKCNICGATFTQKGNLLRHIKL, with -0.686.
With FECEICGRSFTQKGNLLRHIKL, the “log2 fold change of degron read counts” value is -2.21.
The value for FSCNVCGALFTQKGNLLRHIKL was -0.872; that for FRCEQCGAVFTQKGNLLRHIKL was -1.05.
Then FYCPICGAYFTQKGNLLRHIKL, with 0.894; and LACEICGFTCTQKGNLLRHIKL, with -0.905; and FDCEICGAKFTQKGNLLRHIKL, with -1.23.
Then FLCNICGAIFTQKGNLLRHIKL, with 0.288; and FCCDICGAEFTQKGNLLRHIKL, with -2.49; and FICEICGAMFTQKGNLLRHIKL, with -0.373.
As for FSCEICGAKFTQKGNLLRHIKL, the “log2 fold change of degron read counts” value is -1.41.
Then FTCPVCGAVFTQKGNLLRHIKL, with -0.0687; and FHCNQCGATFTQKGNLLRHIKL, with -1.32; and FKCPVCGATFTQKGNLLRHIKL, with -0.891.
The value for FQCSVCGHKFTQKGNLLRHIKL was -1.41.
In the case of FWCEICGAQFTQKGNLLRHIKL, the “log2 fold change of degron read counts” value is -0.981.
For the sequence FDCNQCGARFTQKGNLLRHIKL, the “log2 fold change of degron read counts” value is -0.388.
The value for FTCSVCGHNFTQKGNLLRHIKL was -0.664.
The value for FMCPICGAVFTQKGNLLRHIKL was -0.17.
The value for FICNICGAFFTQKGNLLRHIKL was -0.263.
In the case of FHCDVCGARFTQKGNLLRHIKL, the “log2 fold change of degron read counts” value is -2.37.
Then LTCNQCGFDCTQKGNLLRHIKL, with -0.787; and LSCEICGFGCTQKGNLLRHIKL, with 0.343.
The value for FNCNQCGAPFTQKGNLLRHIKL was -0.156; that for LHCPICGFGCTQKGNLLRHIKL was 0.9.
The value for FTCSVCGHPFTQKGNLLRHIKL was -0.321.
FECNQCGAAFTQKGNLLRHIKL: the “log2 fold change of degron read counts” value was -1.27.
The value for FDCEICGRDFTQKGNLLRHIKL was -0.809.
